# Measured values from the supplement of paper PMC3334620.
# The full ranking holds about 33,000 sequences; the median of “E-score (-0.5 to 0.5)” is about -0.054, and the highest 2% start at about 0.35. This is one part of the list.
# Target: T1, Stb5 (UniProt P38699)
# T1 sequence: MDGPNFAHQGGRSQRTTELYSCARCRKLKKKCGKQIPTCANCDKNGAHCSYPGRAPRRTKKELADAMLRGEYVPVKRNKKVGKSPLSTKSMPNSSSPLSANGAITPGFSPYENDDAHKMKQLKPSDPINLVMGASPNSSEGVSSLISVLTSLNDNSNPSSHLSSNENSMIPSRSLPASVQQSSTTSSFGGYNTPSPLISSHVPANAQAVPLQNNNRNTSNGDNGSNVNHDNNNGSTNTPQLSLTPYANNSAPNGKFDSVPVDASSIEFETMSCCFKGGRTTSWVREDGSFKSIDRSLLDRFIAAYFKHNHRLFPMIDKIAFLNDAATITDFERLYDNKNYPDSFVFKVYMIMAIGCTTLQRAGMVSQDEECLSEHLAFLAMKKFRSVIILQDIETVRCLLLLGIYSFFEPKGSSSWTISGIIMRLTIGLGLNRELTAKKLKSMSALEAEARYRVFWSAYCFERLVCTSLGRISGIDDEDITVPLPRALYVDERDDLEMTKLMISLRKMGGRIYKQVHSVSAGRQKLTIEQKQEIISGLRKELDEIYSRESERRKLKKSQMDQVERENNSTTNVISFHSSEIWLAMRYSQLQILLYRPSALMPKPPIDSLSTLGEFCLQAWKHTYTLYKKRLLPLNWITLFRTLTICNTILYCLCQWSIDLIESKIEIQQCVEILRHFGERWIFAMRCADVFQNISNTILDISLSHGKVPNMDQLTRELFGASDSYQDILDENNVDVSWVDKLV
# Experiment: PBM E-score (8-mer binding enrichment) (E-score (-0.5 to 0.5)); higher = stronger / more preferred TF binding; most listed sequences are background and not binding sites
# Conditions: protein concentration: 200 nM; construct: GST-full length
# Outline: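 Full-length yeast transcription factors or their DNA-binding domains, GST-tagged and expressed with PURExpress, were applied at about 100-200 nM to universal all-10-mer Agilent arrays. These arrays had been made double-stranded by primer extension on fresh or once-stripped slides. Detection used fluorescent anti-GST, normalisation used masliner, and E-scores for ungapped eight-base words pooled with reverse complements came from the Universal PBM Analysis Suite.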
row,Sequence,PBM E-score
1,CAGTATGA,-0.12
2,CGGTATGC,0.00802
3,AAAATAAT,0.0133
4,CTCGATAA,-0.1
5,AAAAGAAC,-0.0657
6,AGACACAT,0.0617
7,CCCCGTCG,0.313
8,ACATTTGG,-0.005
9,GTAGCTGA,-0.219
10,CGAAGGTA,0.0558
11,GCACAGAC,0.0491
12,ATAAAGGA,0.127
13,CAGAGGCG,0.0222
14,TAGTTACA,-0.0984
15,AAGTGAAT,-0.0291
16,CAGTCTTC,-0.217
17,GTCCGGAC,0.348
18,CACCCGGC,0.0834
19,CTCGCCAG,-0.09
20,AGAATGAC,-0.191
21,ACCTCAGG,-0.252
22,ACTCGCTG,-0.0554
23,GTTCCAAC,0.147
24,ACCAATCG,-0.0464
25,CACTCGAA,-0.167

row,Sequence,PBM E-score
1,AGGGAGGG,0.0331
2,GGCTATCA,-0.138
3,AGAGGGAT,-0.33
4,AGTAGTGA,-0.187
5,CTCTACCA,0.0166
6,GCGGACAA,0.309
7,AGTATGCA,-0.0573
8,AAGAGTTG,-0.19
9,GGATATGA,0.0322
10,CGGAAGAG,0.00942
11,ACCTACGG,0.214
12,AAAAATAC,0.0585
13,ACAAACTC,0.0471
14,CTCTCGAA,-0.298
15,GTGAACTA,-0.107
16,TGCCGCCA,0.283
17,GAAGGAAC,-0.0292
18,AATCAGAT,-0.134
19,AAGTCGGA,0.274
20,AACTAGAC,0.0858
21,CGTATACG,0.0927
22,AGCTCGAG,-0.106
23,GAGCGCAC,0.141
24,GTCATATA,0.0314
25,ATCAGGCC,0.0958

row,Sequence,PBM E-score
1,GAATTTCC,0.00787
2,ACGTGACC,-0.0533
3,GTGAGAGA,-0.127
4,CAAAGACC,0.192
5,GATGGACA,0.133
6,CACCCATA,-0.0963
7,GAATCGGC,0.212
8,GTTCAAAA,-0.0289
9,CCAGGTTA,-0.102
10,ACACCTCA,-0.283
11,ACCGGCTC,0.213
12,ATAACTAG,0.0581
13,GACGCACA,0.0925
14,ACCCTGAG,-0.163
15,CTATGATC,-0.00672
16,TCCGAAAA,0.142
17,ACTCTCGG,0.14
18,CACTGGCC,-0.234
19,CTCCGCAA,0.123
20,CCATTAAA,0.0322
21,CGTTTATA,0.13
22,AGAAGATA,-0.0181
23,CTTCCGGC,0.0896
24,CCTCGAGG,-0.326
25,CGATACTA,0.0932

row,Sequence,PBM E-score
1,CACTATCG,-0.0292
2,TGATGGCA,-0.257
3,ATGATTGC,-0.104
4,AGCTTCGG,0.196
5,AGGGGTGC,-0.119
6,CATCTGAG,-0.0382
7,GATAAGCA,0.0636
8,ACGCAGCA,-0.17
9,AGGCACAC,-0.203
10,CTGCGCTA,0.0203
11,GCCGGAGA,0.231
12,CCATGACG,0.0201
13,AGACGAGC,-0.248
14,GCCTCCAA,0.0176
15,CTAAAATC,-0.105
16,TGAAATAA,0.0137
17,GCTTTTAA,0.161
18,TCGCGAAA,0.0883
19,TACGAGAA,0.022
20,CCGCATCG,0.252
21,GTGGTACA,-0.142
22,CGCGTGAC,0.0187
23,AACAGGAG,-0.14
24,CGACATCC,0.0432
25,AGATTTCC,-0.133

row,Sequence,PBM E-score
1,ACGTTCTA,-0.247
2,AAGGCAAA,-0.363
3,CAACGGGA,0.146
4,ACCGCTTG,0.276
5,AGTAGAAT,-0.323
6,CTGGTCTA,-0.205
7,GCCGACTA,0.253
8,AGATTAGA,-0.075
9,AAGTTCGT,-0.0622
10,GAGCTGCA,-0.148
11,ATGATTCA,-0.185
12,CCGTCATC,0.257
13,CGCGCCCC,0.107
14,ATGACCTA,-0.0724
15,ACTAATCT,0.0682
16,ACACGATC,-0.082
17,CATCCGCC,0.271
18,AGGCTGGA,-0.199
19,CTTTATAC,0.209
20,CAGACTCC,0.0827
21,CGCCAGAC,-0.0322
22,ACAAGTAA,-0.193
23,GAATACCC,0.115
24,GCAATACC,0.175
25,AGGACAAC,-0.138

row,Sequence,PBM E-score
1,GCGACCTA,-0.189
2,GCTGGTGA,-0.201
3,CCTAAGCG,0.0828
4,GAAATTTA,-0.097
5,ATAAAAGG,0.0585
6,GGAAAGAC,-0.0533
7,TCTATTAA,-0.042
8,AGTCCAAG,-0.252
9,ACGATATA,-0.0812
10,CACAGAAG,-0.0722
11,CCTCCAAC,-0.199
12,TCATCCGA,0.157
13,TAGCAGCA,-0.233
14,CCGACGCG,0.378
15,ATATAAGC,-0.0284
16,TAATGGGA,-0.263
17,ACATGCTC,-0.203
18,CCGTGCCA,0.1
19,GGCAAAAC,0.189
20,CACGAAAC,-0.0143
21,CAATTGTC,-0.0888
22,ACACTACG,-0.0636
23,GCATTGTA,-0.0321
24,GACTTATA,0.289
25,ATCTCGGA,0.184

row,Sequence,PBM E-score
1,AGTGTCGA,-0.0288
2,GGCGACGA,-0.308
3,TTCATAAA,-0.0475
4,ACAGGAAC,-0.149
5,CGGGCTTC,0.293
6,AAATGCGA,-0.0217
7,ACGTGGCA,-0.105
8,ACCCACGG,0.103
9,AGGTTGTA,-0.076
10,CCGCCTCG,0.214
11,GCTGTGAC,-0.137
12,ACGACTAC,-0.236
13,ATCCTCCA,-0.256
14,CTATAGGA,0.0341
15,TCTGTTCA,-0.178
16,CAACAGTG,-0.0346
17,ACACCCCA,-0.176
18,CTACTACA,0.035
19,GAATTATA,0.198
20,ACTATGAG,-0.18
21,CGATTGAG,-0.00869
22,GGAAGAAC,0.0177
